Laboratory results: the supplement of paper PMC7125110
± gives the standard error. This sample is rich in variants without activity.

B1: glmS ribozyme (parent)
chain: AUAAAAGCGCCAGAACUACAGAAAUGUAGUUGACGAGGAGGAGGUUUAUCGAAUUUUCGGCGGAUGCCUCCAAA

Assays:
Settings in all cases: with glucosamine-6-phosphate
glucosamine-6-phosphate [1] = variants of: B1; assay: self-cleavage kobs at 40 uM GlcN6P; higher = faster cleavage; RNA array
Procedure, shortened: (§1)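 Barcoded ribozyme variants on sequenced MiSeq chips were transcribed in situ by E. coli RNA polymerase and followed at 37 °C through a hybridised Cy3 probe. Glucosamine-6-phosphate at 40 μM to 10 mM in HEPES/KCl/Mg(OAc)2 buffer was flowed in, and tiles were imaged over ~14 h. Signals were normalised to baseline and to non-cleaving reference variants, and per-tile medians were fit to one- or two-exponential decays to give kobs. Weighted Michaelis–Menten fits across concentrations gave kcat and KM.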

glucosamine-6-phosphate [2] = variants of: B1; assay: self-cleavage kobs at 10000 uM GlcN6P; higher = faster cleavage; RNA array
Procedure, shortened: as §1

glucosamine-6-phosphate [3] = variants of: B1; assay: self-cleavage kobs at 640 uM GlcN6P; higher = faster cleavage; RNA array
Procedure, shortened: as §1

glucosamine-6-phosphate [4] = variants of: B1; assay: self-cleavage kobs at 2500 uM GlcN6P; higher = faster cleavage; RNA array
Procedure, shortened: as §1

glucosamine-6-phosphate [5] = variants of: B1; assay: self-cleavage kobs at 160 uM GlcN6P; higher = faster cleavage; RNA array
Procedure, shortened: as §1

glucosamine-6-phosphate [6] = variants of: B1; assay: kcat; higher = faster cleavage; RNA array
Procedure, shortened: as §1

Variant	self-cleavage kobs at 40 uM GlcN6P (glucosamine-6-phosphate [1])	self-cleavage kobs at 10000 uM GlcN6P (glucosamine-6-phosphate [2])	self-cleavage kobs at 640 uM GlcN6P (glucosamine-6-phosphate [3])	self-cleavage kobs at 2500 uM GlcN6P (glucosamine-6-phosphate [4])	self-cleavage kobs at 160 uM GlcN6P (glucosamine-6-phosphate [5])	kcat (glucosamine-6-phosphate [6])
G7A A42G G44U	< 1e-05 s⁻¹	< 1e-05 s⁻¹				
A6G A14C A53G C61U	< 1e-05 s⁻¹	< 1e-05 s⁻¹				
C10G G38C U69G	< 1e-05 s⁻¹					
A6U U57G	< 1e-05 s⁻¹					
A6C G32U	< 1e-05 s⁻¹		< 1e-05 s⁻¹	< 1e-05 s⁻¹		
C8G G35U	< 1e-05 s⁻¹	< 1e-05 s⁻¹	< 1e-05 s⁻¹	< 1e-05 s⁻¹	< 1e-05 s⁻¹	
G7A A42C	< 1e-05 s⁻¹		< 1e-05 s⁻¹		< 1e-05 s⁻¹	
A6G A14C U54G	< 1e-05 s⁻¹					
C11A C68A	< 1e-05 s⁻¹					
C8G C10U G41A	< 1e-05 s⁻¹					
G7A A15G C58G G66U	< 1e-05 s⁻¹	< 1e-05 s⁻¹				
G7A A14C	< 1e-05 s⁻¹					
G7U C8G U47G C58U C61G U69G	0.000436 ± 0.00012 s⁻¹	0.000464 ± 0.00012 s⁻¹				
C8G U47G	< 1e-05 s⁻¹		< 1e-05 s⁻¹	< 1e-05 s⁻¹	< 1e-05 s⁻¹	
G7U A15U	< 1e-05 s⁻¹	< 1e-05 s⁻¹	< 1e-05 s⁻¹	< 1e-05 s⁻¹	< 1e-05 s⁻¹	
G9C G32A G43U	< 1e-05 s⁻¹	< 1e-05 s⁻¹				
A6G C8U G29C G44U U55G	< 1e-05 s⁻¹	< 1e-05 s⁻¹				
C11A U69G	5.85e-05 ± 9.2e-06 s⁻¹	5.17e-05 ± 1.1e-05 s⁻¹	0.000166 ± 4.5e-05 s⁻¹		0.000398 ± 0.00018 s⁻¹	
C10G U46C	< 1e-05 s⁻¹	< 1e-05 s⁻¹	< 1e-05 s⁻¹	< 1e-05 s⁻¹	< 1e-05 s⁻¹	
C8A U65C	< 1e-05 s⁻¹	< 1e-05 s⁻¹		< 1e-05 s⁻¹		
C8A U65A	< 1e-05 s⁻¹		< 1e-05 s⁻¹		< 1e-05 s⁻¹	
G7U A12U A52G U55G	< 1e-05 s⁻¹					
C10G C68A	< 1e-05 s⁻¹					
C8A U30C	< 1e-05 s⁻¹	< 1e-05 s⁻¹		< 1e-05 s⁻¹		
G9C C50U	< 1e-05 s⁻¹	< 1e-05 s⁻¹	< 1e-05 s⁻¹		< 1e-05 s⁻¹	
G63U A64C G66C		< 1e-05 s⁻¹				< 1e-05 s⁻¹

Variant	self-cleavage kobs at 40 uM GlcN6P (glucosamine-6-phosphate [1])	self-cleavage kobs at 10000 uM GlcN6P (glucosamine-6-phosphate [2])	self-cleavage kobs at 640 uM GlcN6P (glucosamine-6-phosphate [3])	self-cleavage kobs at 2500 uM GlcN6P (glucosamine-6-phosphate [4])	self-cleavage kobs at 160 uM GlcN6P (glucosamine-6-phosphate [5])	kcat (glucosamine-6-phosphate [6])
C11A A48U	< 1e-05 s⁻¹				< 1e-05 s⁻¹	
A6C A14U	< 1e-05 s⁻¹				< 1e-05 s⁻¹	
A6C G9C G13U C61G	< 1e-05 s⁻¹	< 1e-05 s⁻¹				
C8G U31C	< 1e-05 s⁻¹	< 1e-05 s⁻¹	< 1e-05 s⁻¹	< 1e-05 s⁻¹		
G9A A15C	< 1e-05 s⁻¹					
A6U G37U U55A G62A	< 1e-05 s⁻¹					
G7C U55G	< 1e-05 s⁻¹	< 1e-05 s⁻¹				
A6G C8G	< 1e-05 s⁻¹				< 1e-05 s⁻¹	
C10G C16G G40U	< 1e-05 s⁻¹			< 1e-05 s⁻¹		
C8U A14U G59C	< 1e-05 s⁻¹	< 1e-05 s⁻¹				
G9U A12U A33G G40U	< 1e-05 s⁻¹					
G9C G35A	< 1e-05 s⁻¹	< 1e-05 s⁻¹	< 1e-05 s⁻¹		< 1e-05 s⁻¹	
G9C G41U	< 1e-05 s⁻¹	< 1e-05 s⁻¹	< 1e-05 s⁻¹	< 1e-05 s⁻¹	< 1e-05 s⁻¹	
A6G C11G	< 1e-05 s⁻¹	< 1e-05 s⁻¹	< 1e-05 s⁻¹	< 1e-05 s⁻¹	< 1e-05 s⁻¹	
C8U A48C	< 1e-05 s⁻¹	< 1e-05 s⁻¹	< 1e-05 s⁻¹			
G9A U46A C61U G62U A64G	< 1e-05 s⁻¹	< 1e-05 s⁻¹				
A6C G29U	< 1e-05 s⁻¹				< 1e-05 s⁻¹	
G7A A48U	< 1e-05 s⁻¹	< 1e-05 s⁻¹	< 1e-05 s⁻¹	< 1e-05 s⁻¹	< 1e-05 s⁻¹	
G9A A12U G41U	< 1e-05 s⁻¹			< 1e-05 s⁻¹		
C8G A15G A64G	< 1e-05 s⁻¹					
C10A C11G G40U U47G G63A	< 1e-05 s⁻¹	< 1e-05 s⁻¹				
C8U G41U	< 1e-05 s⁻¹					
C8U C11U	< 1e-05 s⁻¹	< 1e-05 s⁻¹	< 1e-05 s⁻¹	< 1e-05 s⁻¹	< 1e-05 s⁻¹	
C8G C10U U31A	< 1e-05 s⁻¹	< 1e-05 s⁻¹				
C11U A14U G43U U54A G63A	< 1e-05 s⁻¹			< 1e-05 s⁻¹		
G7C A36C A52U U56C C68U	< 1e-05 s⁻¹	< 1e-05 s⁻¹				

Variant	self-cleavage kobs at 40 uM GlcN6P (glucosamine-6-phosphate [1])	self-cleavage kobs at 10000 uM GlcN6P (glucosamine-6-phosphate [2])	self-cleavage kobs at 640 uM GlcN6P (glucosamine-6-phosphate [3])	self-cleavage kobs at 2500 uM GlcN6P (glucosamine-6-phosphate [4])	self-cleavage kobs at 160 uM GlcN6P (glucosamine-6-phosphate [5])	kcat (glucosamine-6-phosphate [6])
C11G C34G C50A G62U	< 1e-05 s⁻¹	< 1e-05 s⁻¹				
C10G C34A A48C U49C	< 1e-05 s⁻¹					
G7C G44C A64U	< 1e-05 s⁻¹	< 1e-05 s⁻¹				
C10U A15U C67A	< 1e-05 s⁻¹					
C10G A42C C61U	< 1e-05 s⁻¹	< 1e-05 s⁻¹				
C10G U30C G32U G66A	< 1e-05 s⁻¹		< 1e-05 s⁻¹		< 1e-05 s⁻¹	
A6U C16A U30G G38A U55A	< 1e-05 s⁻¹					
G7U A15C U30G	< 1e-05 s⁻¹					
A6G U45A G60C	< 1e-05 s⁻¹	< 1e-05 s⁻¹				
C8A A52C	< 1e-05 s⁻¹					
C8G G13C U31A A39G U57A	< 1e-05 s⁻¹	< 1e-05 s⁻¹				
G9A G37C U56G G63U	< 1e-05 s⁻¹					
C8U C50U	< 1e-05 s⁻¹		< 1e-05 s⁻¹		< 1e-05 s⁻¹	
C11G A12C	< 1e-05 s⁻¹	0.00011 ± 1.3e-05 s⁻¹		6.61e-05 ± 1.2e-05 s⁻¹		
C8U U31C C67G	< 1e-05 s⁻¹	< 1e-05 s⁻¹	< 1e-05 s⁻¹			
G9A C58U C61G	< 1e-05 s⁻¹					
A6G C10G	< 1e-05 s⁻¹	< 1e-05 s⁻¹	< 1e-05 s⁻¹	< 1e-05 s⁻¹	< 1e-05 s⁻¹	
A6G U45G	< 1e-05 s⁻¹		< 1e-05 s⁻¹		< 1e-05 s⁻¹	
G7U C8A G41C U49G U55A G60U C70U	< 1e-05 s⁻¹					
C11G C16A G38C	< 1e-05 s⁻¹					
C10U U46G C70U	< 1e-05 s⁻¹					
C11G U57G	< 1e-05 s⁻¹	< 1e-05 s⁻¹		< 1e-05 s⁻¹	< 1e-05 s⁻¹	
G63U C71A						< 1e-05 s⁻¹
G7A A53C	< 1e-05 s⁻¹		< 1e-05 s⁻¹	< 1e-05 s⁻¹	< 1e-05 s⁻¹	
C8G G29A	< 1e-05 s⁻¹		< 1e-05 s⁻¹	< 1e-05 s⁻¹	< 1e-05 s⁻¹	
G7C G29C A64C	< 1e-05 s⁻¹		< 1e-05 s⁻¹	< 1e-05 s⁻¹	< 1e-05 s⁻¹	

Variant	self-cleavage kobs at 40 uM GlcN6P (glucosamine-6-phosphate [1])	self-cleavage kobs at 10000 uM GlcN6P (glucosamine-6-phosphate [2])	self-cleavage kobs at 640 uM GlcN6P (glucosamine-6-phosphate [3])	self-cleavage kobs at 2500 uM GlcN6P (glucosamine-6-phosphate [4])	self-cleavage kobs at 160 uM GlcN6P (glucosamine-6-phosphate [5])	kcat (glucosamine-6-phosphate [6])
C8A A48C G59U	< 1e-05 s⁻¹	< 1e-05 s⁻¹				
A6U C11U G29U A42U A48U A52C	< 1e-05 s⁻¹	< 1e-05 s⁻¹				
A6U G9U U45A C71A	< 1e-05 s⁻¹	< 1e-05 s⁻¹				
G9U G41C A42U G44A	< 1e-05 s⁻¹		< 1e-05 s⁻¹	< 1e-05 s⁻¹	< 1e-05 s⁻¹	
A6G G59A	< 1e-05 s⁻¹	< 1e-05 s⁻¹	< 1e-05 s⁻¹	< 1e-05 s⁻¹		
G9C U30G	< 1e-05 s⁻¹		< 1e-05 s⁻¹		< 1e-05 s⁻¹	
G9C U30A	< 1e-05 s⁻¹		< 1e-05 s⁻¹			
C10A G38A G59C	< 1e-05 s⁻¹	< 1e-05 s⁻¹	< 1e-05 s⁻¹			
C8U A52U	< 1e-05 s⁻¹	< 1e-05 s⁻¹	< 1e-05 s⁻¹	< 1e-05 s⁻¹	< 1e-05 s⁻¹	
C10U G44C	< 1e-05 s⁻¹	< 1e-05 s⁻¹	< 1e-05 s⁻¹	< 1e-05 s⁻¹	< 1e-05 s⁻¹	
G7U U46C C70G	< 1e-05 s⁻¹	< 1e-05 s⁻¹		< 1e-05 s⁻¹		
C10G G37C	< 1e-05 s⁻¹	< 1e-05 s⁻¹				
G9A G44A C67A	< 1e-05 s⁻¹					
C10U U31A G38U	< 1e-05 s⁻¹	< 1e-05 s⁻¹	< 1e-05 s⁻¹			
C11G G41U A42G	< 1e-05 s⁻¹			< 1e-05 s⁻¹		
G7U A36U	< 1e-05 s⁻¹		< 1e-05 s⁻¹		< 1e-05 s⁻¹	
C10G G29A U54G	< 1e-05 s⁻¹					
A6G A48G	< 1e-05 s⁻¹	< 1e-05 s⁻¹	< 1e-05 s⁻¹	< 1e-05 s⁻¹	< 1e-05 s⁻¹	
G9U A64U	< 1e-05 s⁻¹	< 1e-05 s⁻¹	< 1e-05 s⁻¹			
A6U G51C	< 1e-05 s⁻¹	< 1e-05 s⁻¹	< 1e-05 s⁻¹	< 1e-05 s⁻¹	< 1e-05 s⁻¹	
G7A G44A	< 1e-05 s⁻¹	< 1e-05 s⁻¹	< 1e-05 s⁻¹		< 1e-05 s⁻¹	
C10U G32A C70U	< 1e-05 s⁻¹					
C10A G29A C67G	0.000103 ± 3.7e-05 s⁻¹	0.000102 ± 3e-05 s⁻¹				
